Data: PMC4336329 (PLoS ONE, 2015)
Hit rate of the full screen: of about 310,000 compounds, about 14,000 (4.5%) showed an effect of 50% or more. The effect is printed as a negative number. Some of the results follow.

biological target: human ether-à-go-go-related gene (hERG) potassium channel (human, UniProt Q12809); test: primary screen, population patch clamp on CHO cells stably expressing hERG
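Note: peak tail current of the secondary pulse compared with the same well before compound.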

Sequence of human ether-à-go-go-related gene (hERG) potassium channel (Q12809 whole entry, looked up): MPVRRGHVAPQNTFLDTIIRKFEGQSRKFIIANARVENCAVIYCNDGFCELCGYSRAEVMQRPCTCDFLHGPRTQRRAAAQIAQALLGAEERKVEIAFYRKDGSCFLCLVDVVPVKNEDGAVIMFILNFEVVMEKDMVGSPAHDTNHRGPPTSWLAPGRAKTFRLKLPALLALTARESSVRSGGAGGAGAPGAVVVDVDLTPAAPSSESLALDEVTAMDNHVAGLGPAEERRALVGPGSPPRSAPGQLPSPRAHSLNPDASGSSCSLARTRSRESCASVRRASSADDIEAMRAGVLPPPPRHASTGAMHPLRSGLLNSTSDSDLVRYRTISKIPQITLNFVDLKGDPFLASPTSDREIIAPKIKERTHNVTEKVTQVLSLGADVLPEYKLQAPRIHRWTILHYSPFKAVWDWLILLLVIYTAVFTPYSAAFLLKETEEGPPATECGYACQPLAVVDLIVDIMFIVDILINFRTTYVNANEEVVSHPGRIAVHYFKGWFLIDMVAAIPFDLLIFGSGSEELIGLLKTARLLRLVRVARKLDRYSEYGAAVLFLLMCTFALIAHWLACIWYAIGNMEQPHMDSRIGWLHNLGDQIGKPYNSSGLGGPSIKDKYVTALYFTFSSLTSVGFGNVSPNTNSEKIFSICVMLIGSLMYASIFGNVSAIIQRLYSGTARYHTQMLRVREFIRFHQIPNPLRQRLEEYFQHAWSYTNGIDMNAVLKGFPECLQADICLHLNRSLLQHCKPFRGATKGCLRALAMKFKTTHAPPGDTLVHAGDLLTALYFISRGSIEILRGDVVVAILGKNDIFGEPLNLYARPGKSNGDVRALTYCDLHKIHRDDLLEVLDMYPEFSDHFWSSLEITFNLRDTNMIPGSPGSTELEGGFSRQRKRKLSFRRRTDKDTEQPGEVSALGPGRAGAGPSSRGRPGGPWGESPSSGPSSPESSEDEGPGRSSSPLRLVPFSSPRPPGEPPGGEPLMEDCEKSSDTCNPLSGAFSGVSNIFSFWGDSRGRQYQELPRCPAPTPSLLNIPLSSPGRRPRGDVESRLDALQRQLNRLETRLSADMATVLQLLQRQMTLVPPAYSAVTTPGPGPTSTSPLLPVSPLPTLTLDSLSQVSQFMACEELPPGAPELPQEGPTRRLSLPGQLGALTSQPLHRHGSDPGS

Structure (SMILES) | hERG current change (%, negative = inhibition) at 10uM [%]
CCCP(=O)(CC(=O)N(CC)CC)c1ccccc1 (centres unmarked) | 12
Cc1ccc(/C=C2\SC(=S)N(CCCC(=O)NC3CCCC3)C2=O)cc1 | 1.4
CC(C)(C)Nc1nc(SCC(=O)Nc2ccccc2Cl)nc(N2CCOCC2)n1 | -3.42
Cc1cc(OCC(O)CNC(C)(C)C)ccc1Cl.Cl (centres unmarked) | -4.91
O=C1NC(=O)N(Cc2ccco2)C(=O)/C1=C\c1cccn1CCOc1ccccc1 | 9.91
CC(C)NS(=O)(=O)c1ccc(Oc2ncc(C(F)(F)F)cc2Cl)cc1 | 16.4
Cc1cc(Nc2ccc3c(c2)OCCO3)c2cc(Cl)ccc2n1.Cl | -52.6
COc1ccc(S(=O)(=O)N2CCN(C(=O)c3ccc(C)o3)CC2)cc1 | -5.16
Cc1ccc(Nc2nc(N/N=C\c3ccc4c(c3)OCO4)nc(N3CCOCC3)n2)cc1 | -6.98
CCN(Cc1ccccc1)c1ccc(/C=N/N=C(N)N)cc1 | -25
CCOc1cccc(/C=N/NC(=O)c2cc(C3CC3)[nH]n2)c1O | 5.91
O=C(NNC1CC(=O)N(c2ccc(Br)cc2)C1=O)c1cccnc1 (centres unmarked) | 5.53
CC(C)CC(=O)N1CCN(Cc2ccc(C(F)(F)F)cc2)CC1 | -1.3
CCCNC(=O)c1ccccc1NC(=O)Nc1ccccc1C | 8.18
N#CC1=C(N)NC(SCC(=O)Nc2ccc(Br)cc2)=C(C#N)C12CCCCC2 | 13.4
CC(C)/C=N/NC(=O)c1ccc(Cl)cc1 | 13.4
Cc1nn(-c2ccccc2)c(C)c1NC(=O)COC(=O)/C=C/c1ccccc1 | 4.01
Cc1ccc(SCC(=O)Nc2ccc(-c3nc4ccccc4[nH]3)cc2)cc1 | 5.17
COc1ccccc1N1CCN(CCN2C(=O)C3CCCCN3C2=O)CC1 (centres unmarked) | 4.39
CC1CCCN(CC(O)COC(c2ccccc2)c2ccccc2)C1 (centres unmarked) | -65
CCc1ccc(-c2cn3nc(-c4ccccc4)cnc3n2)cc1 | -0.423
Cc1nnsc1SC(C)C(=O)O (centres unmarked) | 9.82

Structure (SMILES) | hERG current change (%, negative = inhibition) at 10uM [%]
Cc1ccc(-c2cn3cccnc3n2)cc1NC(=O)c1ccc(Br)o1 | 0.84
Cc1ccc(F)cc1NC(=O)CCNC(=O)c1ccc([N+](=O)[O-])cc1 | -2.22
C/C(=N/NS(=O)(=O)c1ccc(C)cc1)c1ccc(NC(=O)C(F)(F)F)cc1 | 10.7
CCOC(=O)C(=O)N1CCC(C(=O)OCC)CC1 | 1.19
CCOC(=O)C(=O)Nc1ccccc1C(=O)Nc1ccc(OC)cc1 | 8.93
CCC(=O)N1CCc2cc(S(=O)(=O)NCCC(=O)N3CCN(c4ccccn4)CC3)ccc21 | -4.4
CSc1cccc(NC(=S)NC(=O)CCc2ccccc2)c1 | 18.8
O=C(Nc1cnccn1)Nc1cccc(Cl)c1Cl | 20.1
COc1ccc(C)cc1-n1nnnc1SCC(=O)N1CCC(C(=O)Nc2nccs2)CC1 | -44.6
Nc1ccn(CC(=O)NCc2ccc3c(c2)OCO3)c(=O)n1 | 7.13
O=C(CSc1nnc(SCc2ccccc2)s1)N/N=C/C=C/c1ccco1 | -14
O=C(OC1CCOC1=O)C1CCN(S(=O)(=O)c2ccc(Cl)c(C(F)(F)F)c2)CC1 (centres unmarked) | 5.27
Cc1ccc(C(=O)NCC(=O)NC2CCC(C)CC2)s1 (centres unmarked) | 2.47
O=C(NCC(=O)N(Cc1ccco1)C(C(=O)NC1CCCCC1)c1cccnc1)c1cccs1 (centres unmarked) | -3.27
COc1ccc(Cl)cc1NC(=O)CSc1nnc(CNC(=O)c2ccco2)o1 | -28.7
CCN(CC)c1ccc(/C=N/NC(=O)CNC(=O)c2ccccn2)cc1 | -28.6
Cn1nnc(NC(=S)NC(=O)c2ccco2)n1 | 13.1
COc1ccc(C(=O)OCC(=O)NCCCc2ccccc2)cc1OC | 12.8
Cn1cc(S(=O)(=O)N2CCCC2)cc1C(=O)NCc1ccc(Cl)cc1 | 2.02
NS(=O)(=O)c1ccc(CNC(=O)CNC(=O)c2ccc(Br)o2)cc1 | 23.2
CC(NC(=O)c1ccc(C(F)(F)F)cc1)C(c1ccccc1)N1CCOCC1 (centres unmarked) | -12.5
O=C(N/C(=C/c1ccco1)C(=O)N1CCCC1)c1cccs1 | -0.326
